Measured values as given in PMC4336329 (PLoS ONE, 2015).
The campaign covered roughly 310,000 compounds. About 14,000 (4.5%) showed an effect of 50% or more. Effects have a minus sign here. The list shows a part of the results.

Each molecule was assayed against human ether-à-go-go-related gene (hERG) potassium channel (human, UniProt Q12809) (assay: primary screen, population patch clamp on CHO cells stably expressing hERG).
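Also: peak tail current of the secondary pulse compared with the same well before compound.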

Sequence of human ether-à-go-go-related gene (hERG) potassium channel (Q12809 whole entry, looked up): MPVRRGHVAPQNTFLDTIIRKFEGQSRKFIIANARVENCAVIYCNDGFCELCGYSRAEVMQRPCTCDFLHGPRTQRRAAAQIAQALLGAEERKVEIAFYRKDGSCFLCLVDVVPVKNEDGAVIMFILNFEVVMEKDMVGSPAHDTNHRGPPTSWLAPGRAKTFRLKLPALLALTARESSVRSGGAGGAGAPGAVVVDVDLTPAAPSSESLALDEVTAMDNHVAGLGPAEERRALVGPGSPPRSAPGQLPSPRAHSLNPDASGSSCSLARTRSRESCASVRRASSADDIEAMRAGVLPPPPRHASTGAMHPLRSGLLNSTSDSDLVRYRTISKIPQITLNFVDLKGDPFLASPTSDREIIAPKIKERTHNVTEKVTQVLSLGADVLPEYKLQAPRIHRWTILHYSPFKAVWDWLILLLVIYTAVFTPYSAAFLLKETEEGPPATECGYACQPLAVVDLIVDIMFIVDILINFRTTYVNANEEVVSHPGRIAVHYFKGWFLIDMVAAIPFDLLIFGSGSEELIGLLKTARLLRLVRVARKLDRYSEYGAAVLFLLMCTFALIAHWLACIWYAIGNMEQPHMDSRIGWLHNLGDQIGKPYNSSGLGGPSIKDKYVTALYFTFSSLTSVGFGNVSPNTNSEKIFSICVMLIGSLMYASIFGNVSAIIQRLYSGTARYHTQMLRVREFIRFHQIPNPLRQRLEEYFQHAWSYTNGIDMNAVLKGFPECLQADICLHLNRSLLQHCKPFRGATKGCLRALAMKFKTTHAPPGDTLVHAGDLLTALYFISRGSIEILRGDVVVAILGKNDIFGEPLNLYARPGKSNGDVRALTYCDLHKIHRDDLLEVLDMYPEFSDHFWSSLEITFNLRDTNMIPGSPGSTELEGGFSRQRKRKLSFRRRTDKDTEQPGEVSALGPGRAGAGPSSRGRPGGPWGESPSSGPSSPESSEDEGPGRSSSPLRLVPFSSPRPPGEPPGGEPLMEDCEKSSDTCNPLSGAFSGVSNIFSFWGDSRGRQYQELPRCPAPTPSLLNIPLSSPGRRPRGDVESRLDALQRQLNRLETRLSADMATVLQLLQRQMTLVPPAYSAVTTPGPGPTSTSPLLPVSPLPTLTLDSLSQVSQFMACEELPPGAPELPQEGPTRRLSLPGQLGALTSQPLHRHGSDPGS

Row | SMILES | hERG current change (%, negative = inhibition) at 10uM [%]
1 | COc1ccc(S(=O)(=O)N(C)CC(=O)N2CCCCC2)cc1Cl | 14.2
2 | Cc1cc(C(=O)OCC(=O)Nc2ccc(S(N)(=O)=O)cc2)c2ccccc2n1 | 27.5
3 | Cc1ccc(S(=O)(=O)NCC2CCC(C(=O)N3CCOCC3)CC2)cc1 (stereo not shown) | -4.69
4 | O=C(c1ccc(Cl)cc1)C1CCCN(C2CCSCC2)C1 (stereo not shown) | -78.9
5 | CCOc1cccc(NC(=O)c2cccc(F)c2)c1 | 16.8
6 | Cc1ccccc1OCCC(=O)OCC(=O)NCCc1ccccc1 | -0.876
7 | Cc1ccccc1C(=O)NC(CC(C)C)C(=O)Nc1cccc(S(=O)(=O)N(C)C)c1 (stereo not shown) | 0.428
8 | O=C1C=C(OCc2ccccc2)CN1 | 7.28
9 | O=c1c2ccccc2oc2ccc(NCCCn3ccnc3)cc12 | 9.83
10 | COc1ccccc1CN(C)C(=O)c1cc(-c2cc(OC)c(OC)c(OC)c2)nc2ccccc12 | 12.9
11 | CCSc1nnc(NC(=O)C2CC(=O)N(Cc3ccc(C)cc3)C2)s1 (stereo not shown) | -19.1
12 | COc1ccc(/C=C2\C(=O)ON=C2c2cccc([N+](=O)[O-])c2)cc1 | 9.07
13 | C=CCNC(=S)NNC(=O)c1ccccc1OCC | 17.2
14 | COc1ccccc1C(=O)NCc1nnc(SCC(=O)Nc2nccs2)n1C | 6.5
15 | CC(C)N=c1c([N+](=O)[O-])nn(C)n1O | -22.3
16 | COc1ccc(-n2nc3c(c2NC(=O)CCl)CSC3)cc1 | -1.63
17 | Cc1ccccc1N(CC(=O)NCC1CCCO1)C(=O)C1(C)CC(=O)N=C2C=CC=CN21 (stereo not shown) | -1.4
18 | Cn1c(-c2ccc3c(c2)OCO3)cnc1NCc1cccc(Cl)c1.O=C(O)C(=O)O | -74
19 | NC(=O)Cn1c(=O)n(Cc2ccco2)c(=O)c2c3c(sc21)CCCCC3 | 5.2
20 | CC(C)(C)NC(=O)COc1ccc(CNn2nnnc2N)cc1 | 17.4
21 | Cc1nn(-c2ccccn2)c2c1C(=O)CC(C)(C)C2Br (stereo not shown) | -8.24
22 | COc1cc(NC(=O)c2cc3ccccc3o2)ccc1NC(=O)c1ccco1 | -9.81

Row | SMILES | hERG current change (%, negative = inhibition) at 10uM [%]
23 | CCOC(=O)C1(CC2CCCCO2)CCN(C2CCSCC2)CC1 (stereo not shown) | -37.8
24 | Clc1ccc(-c2nnc(-c3ccc(Br)cc3)c(N3CCSCC3)n2)cc1 | -11.9
25 | O=C(/C=C/c1ccc2c(c1)OCCCO2)c1ccccc1O | 1.94
26 | CCOC(=O)C1=C(O)/C(=C/c2ccc(OCC(=O)O)c(OCC)c2)SC1=Nc1ccccc1 | 4.15
27 | CC1CCc2c(sc(NC(=O)c3ccc(N4C(=O)CCC4=O)cc3)c2C(N)=O)C1 (stereo not shown) | -10.4
28 | Cc1ccc(C(CC(=O)O)Nc2nc(N3CCOCC3)nc(N3CCOCC3)n2)cc1 (stereo not shown) | 12.6
29 | CCCCC(=O)OCC(=O)Nc1cccc(S(=O)(=O)NC2=NCCCCC2)c1 | -9.56
30 | O=C(COc1ccc(F)cc1Cl)Nc1ccc(S(=O)(=O)Nc2nccs2)cc1 | 1.69
31 | CSc1ccccc1NC(=O)CN(C)C(=O)CNc1ccc(C(F)(F)F)cc1[N+](=O)[O-] | -4.68
32 | O=C(COC(=O)c1cc(=O)[nH]c2ccccc12)NCc1cccc(Cl)c1 | -15
33 | COc1ccccc1N1CCN(C(=O)c2nn(C)c3c2CS(=O)(=O)c2ccccc2-3)CC1 | 2.07
34 | COc1ccc(OC)c(NC(=O)CSc2nc(N3CCOCC3)nc(N3CCOCC3)n2)c1 | -0.35
35 | COc1cc(-c2nc3cnccn3c2Nc2c(C)cccc2C)ccc1O | 12
36 | CC(=O)Oc1cccc(N2C(=O)c3ccc(C(=O)Nc4cccnc4)cc3C2=O)c1 | 2.32
37 | CCCSc1nsc(NC(=O)C(c2ccccc2)c2ccccc2)n1 | 19.3
38 | Cc1cc(C(=O)CSc2n[nH]c(N)n2)c(C)n1-c1ccc2c(c1)OCO2 | -19.2
39 | [O-][n+]1cccc2c(Br)cc(Br)c(O)c21 | -6.84
40 | COc1cccc2c1OCC1COc3c(c(=O)n(C)c(=O)n3C)C21 (stereo not shown) | -4.01
41 | O=C1CCCN1CCC1CCCCN1Cc1nc(-c2cnccn2)no1 (stereo not shown) | 15.8
42 | Cc1ccccc1NS(=O)(=O)c1cc(C(=O)Nc2cccnc2)ccc1C | 15.7
43 | CCCn1cc(S(=O)(=O)c2ccc(C)cc2)c(=O)c2cc(OCC)ccc21 | -36.4
